In the series the test system is ATP. As to the kind of experiment: switch fluorescence ratio, 500 uM ATP over buffer (Cy3 cluster intensity, sum of 5 cycles each) (fold (ratio)); higher = stronger signal-on switching upon ATP binding; sequences stand for … in TCGTCGGCAGCGTCAGATGTGTATAAGAGACAGTTTTTTTTTTTTTTTTTTTTTTTTT…TC. The conditions noted are these: aptamer strand: ATP DNA aptamer (quencher-CACCTGGGGGAGTATTGCGGAGGAAGG + anchor), 100 nM annealed; ATP concentration: 500 uM; one replicate. The method in brief:
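Clusters with intensities outside 100-1000 RFU were excluded. The remaining Cy3-labelled switching-strand clusters on a modified Illumina MiSeq flow-cell had been annealed to 100 nM quencher-labelled ATP aptamer and imaged in selection buffer, then after 15 min with 500 uM ATP at 22 °C, for five cycles separated by NaOH stripping and re-annealing. The fluorescence ratio, averaged per switch-domain sequence, is each cluster's summed target-cycle Cy3 intensity over its summed buffer-cycle Cy3 intensity.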

Sequences with one replicate were seen in a single cluster, so their values are uncertain.
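Note: ATP exposure 15 min at 22 °C before imaging.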

Turning to AGACAGCCAG, the switch fluorescence ratio turned out to be 0.988.

In the case of TGGGAGAGAT, the switch fluorescence ratio is 1.04.

Take AATTTAGCAG: the switch fluorescence ratio is 0.984.

As for ACAGGAGGAC, the switch fluorescence ratio was 1.01.

Take CTGTCGAGGG: the switch fluorescence ratio is 0.968.

On to AACCCCGGAA, for which the switch fluorescence ratio stood at 2.21.

Turning to GGAAAAGTCG, the switch fluorescence ratio was determined as 0.941.

In the case of GCATGCGTAA, the switch fluorescence ratio is 0.971.

As for GTAATGACTT, the switch fluorescence ratio stood at 0.988.

Take ACTGGAGTAT: the switch fluorescence ratio is 0.987.

Turning to TTTTTCAGAA, the switch fluorescence ratio amounted to 0.994.

Take GTGTCCTCAT: the switch fluorescence ratio worked out at 1.

As to AATCTAATGC, the switch fluorescence ratio came to 1.01.

As to TACGTTGGGT, the switch fluorescence ratio is 0.962.

Take GTAGTCGCTG: the switch fluorescence ratio came to 0.995.

Regarding GTCCTTTATG, the switch fluorescence ratio worked out at 0.937.

GTGTAAACTC: the switch fluorescence ratio came out at 0.931.

As to TTACGCGGTC, the switch fluorescence ratio amounted to 1.57.

In the case of GATTTACTAT, the switch fluorescence ratio turned out to be 1.01.

As for CCGTGCAGGA, the switch fluorescence ratio came to 1.12.

As for GAGTTGATTA, the switch fluorescence ratio was determined as 1.01.

On to TGTCTCAAC, for which the switch fluorescence ratio stood at 1.04.

With ACTGGGTTAG, the switch fluorescence ratio worked out at 1.

Regarding TGGGACTGCC, the switch fluorescence ratio came to 1.15.

As for ACGTGCCGGG, the switch fluorescence ratio stood at 0.967.

For TCTGGATATG, the switch fluorescence ratio came out at 1.04.

Take GGATTTTGG: the switch fluorescence ratio turned out to be 0.965.

Regarding TTGTATGCGG, the switch fluorescence ratio came out at 0.913.

For the sequence TCGAATCGGC, the switch fluorescence ratio was determined as 0.964.

In the case of GGGGAGAATC, the switch fluorescence ratio worked out at 1.

For ACGCGCGCCA, the switch fluorescence ratio amounted to 1.01.

Consider GCAGAGGCGG, for which the switch fluorescence ratio amounted to 0.998.

In the case of TACTCTGGTA, the switch fluorescence ratio was found to be 1.06.

As to TCGGTTGATA, the switch fluorescence ratio is 0.976.

Regarding CGCATTTTCC, the switch fluorescence ratio is 2.73.

On to ACATGGGCCC, for which the switch fluorescence ratio stood at 0.995.

As for AATCCTCGGA, the switch fluorescence ratio was 1.04.

Consider GATAGGCTTA, for which the switch fluorescence ratio worked out at 0.993.

As for ATGTCTATTT, the switch fluorescence ratio was 0.954.

With ACTCGAGACG, the switch fluorescence ratio was 1.07.

Take TTATATTAC: the switch fluorescence ratio turned out to be 1.06.

Regarding TTGCTACGGT, the switch fluorescence ratio was 1.08.

On to GATGTAGGGT, for which the switch fluorescence ratio was 0.973.

Turning to CACAGTGCT, the switch fluorescence ratio stood at 1.01.

As for TTATGCGCG, the switch fluorescence ratio was 0.962.

CCCCTTCTGT: the switch fluorescence ratio was found to be 0.965.

With AGAAGCATTT, the switch fluorescence ratio came to 1.

As for TTGCAGGTAG, the switch fluorescence ratio came out at 1.18.

CTTGGCATG: the switch fluorescence ratio was 0.981.

For AAGGAAGCAG, the switch fluorescence ratio came to 1.

As for CGTGGTTAAT, the switch fluorescence ratio was determined as 0.963.

With TATTCGCA, the switch fluorescence ratio was 1.27.

With GGACTAACAG, the switch fluorescence ratio was 0.881.

Turning to TTAAGCTGTA, the switch fluorescence ratio was determined as 1.1.

Turning to AGCCCAGATA, the switch fluorescence ratio was 0.98.

In the case of TTTTAAATCG, the switch fluorescence ratio amounted to 1.01.

For GCTGTCGCCC, the switch fluorescence ratio was found to be 1.08.

In the case of TCATGGTCAG, the switch fluorescence ratio is 0.961.

With AGTCAATGCG, the switch fluorescence ratio is 1.06.

With CCATCAAAAA, the switch fluorescence ratio is 0.973.

On to TTTCGTGACG, for which the switch fluorescence ratio turned out to be 2.79.

For the sequence TACGTGGGCA, the switch fluorescence ratio came to 0.993.

As for CGTATGGGCT, the switch fluorescence ratio is 0.972.

For CGCGCAGGAG, the switch fluorescence ratio came out at 1.24.

Regarding CGGACACGGT, the switch fluorescence ratio came out at 0.966.

Turning to CCTATTCCTC, the switch fluorescence ratio was 1.1.

In the case of CGCCGTAGAT, the switch fluorescence ratio was determined as 1.05.

Turning to GCTACGATG, the switch fluorescence ratio was 1.01.

For TATTTCCGTG, the switch fluorescence ratio came out at 0.974.

TTGCCCGTTT: the switch fluorescence ratio turned out to be 0.968.

For TTCAAACCAT, the switch fluorescence ratio turned out to be 0.993.

As for AGGTTACCCA, the switch fluorescence ratio came to 1.04.

With TATTGGCGGC, the switch fluorescence ratio came out at 0.968.

For TTGGTGCAAT, the switch fluorescence ratio worked out at 1.34.

As to TCGCTATCTT, the switch fluorescence ratio worked out at 1.01.

Turning to GTGTGCTGCC, the switch fluorescence ratio is 0.997.

On to ACTTGTAGCG, for which the switch fluorescence ratio worked out at 0.988.

Turning to ACTTGACGT, the switch fluorescence ratio was 1.11.

For ATTTCTTTTA, the switch fluorescence ratio worked out at 0.979.

The values are drawn from the supplement of paper PMC10126150.
